{"source": "PubChem BioAssay AID588579", "about": "(National Center for Advancing Translational Sciences (NCATS), 2011)", "note": "Among all 400,000 compounds or so, about 2,200 (0.55%) were called active. The call rests on the fitted dose curve; in most records, active means well fitted inhibition curve with a large enough effect; inconclusive means small, poorly fitted or top-dose-only effect, or another doubt; inactive means no such curve, though single readings can be large or run the other way. Inconclusive means that the source gave no clear call. Potencies beside an inconclusive call are fits to weak or partial responses and may not hold up. Potency means the concentration at half of the fitted maximal effect; tags describe the fitted curve by direction and shape."}
{"molecular_target": "DNA polymerase kappa (Homo sapiens) (UniProt Q9UBT6)", "sequence (Q9UBT6 whole entry, looked up)": "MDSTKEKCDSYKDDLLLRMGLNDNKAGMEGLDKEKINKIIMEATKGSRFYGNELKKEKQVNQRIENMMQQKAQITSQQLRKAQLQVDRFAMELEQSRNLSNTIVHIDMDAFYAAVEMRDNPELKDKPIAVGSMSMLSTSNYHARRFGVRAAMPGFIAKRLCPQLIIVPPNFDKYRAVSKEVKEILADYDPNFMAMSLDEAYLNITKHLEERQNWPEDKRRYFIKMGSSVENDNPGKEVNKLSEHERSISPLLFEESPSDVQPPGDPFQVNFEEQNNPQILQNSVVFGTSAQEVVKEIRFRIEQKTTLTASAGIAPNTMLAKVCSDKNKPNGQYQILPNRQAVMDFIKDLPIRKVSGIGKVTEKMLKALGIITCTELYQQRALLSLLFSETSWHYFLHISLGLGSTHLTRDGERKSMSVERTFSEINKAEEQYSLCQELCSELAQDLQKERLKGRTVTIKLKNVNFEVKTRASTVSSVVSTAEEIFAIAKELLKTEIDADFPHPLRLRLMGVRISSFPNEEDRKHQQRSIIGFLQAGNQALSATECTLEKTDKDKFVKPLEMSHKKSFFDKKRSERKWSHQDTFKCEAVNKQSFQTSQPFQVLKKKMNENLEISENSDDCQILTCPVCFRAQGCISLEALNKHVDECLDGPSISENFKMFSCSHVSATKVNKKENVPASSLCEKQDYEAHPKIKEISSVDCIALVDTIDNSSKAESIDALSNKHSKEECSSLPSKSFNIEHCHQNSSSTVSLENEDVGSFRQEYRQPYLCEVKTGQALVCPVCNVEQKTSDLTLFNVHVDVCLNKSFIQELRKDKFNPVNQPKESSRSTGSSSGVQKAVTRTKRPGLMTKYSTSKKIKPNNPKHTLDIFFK", "test": "qHTS for Inhibitors of Polymerase Kappa", "conditions": "purified Pol kappa, fluorescent DNA synthesis assay, 10 min; series mostly up to 107 µM", "experimental": "The processing and repair of DNA interstrand crosslinks (ICL) in eukaryotic cells are extremely complex, potentially involving multiple DNA repair and damage tolerance pathways, including homologous recombination, nucleotide excision repair, translesion synthesis (TLS), and cell cycle checkpoints.\nTo that end, in a collaboration between the Oregon Health & Science University and the NIH Chemical Genomics Center a 1536-well high-throughput screen was developed. This fluorescent screen was assayed against the NIH Molecular Libraries Small Molecule Repository (MLSMR) to discover inhibitors of Pol Kappa.\nNIH Chemical Genomics Center [NCGC]\nNIH Molecular Libraries Probe Centers Network [MLPCN]\nAssay Submitter (PI): Stephen Lloyd, Oregon Health & Science University\nThree microliters of reagents (buffer in column 3 and 4 as negative control and 10 nM Pol kappa in columns 1, 2, and 5-48) were dispensed into a 1536-well black solid-bottom plate. Compounds (23 nL) were transferred via Kalypsys pin tool equipped with 1536-pin array. The plates were then incubated for 15 min at room temperature, and 1 uL substrate (50 nM final concentration) were then added to start the reaction and kinetically read twice at 0 min and 10 min on the Viewlux reader"}
{"smiles": "CC(C)(C)c1ccc2c(c1)OC(C(=O)N/N=C\\c1ccc(-c3cccc(C(=O)O)c3)o1)CO2", "note": "(stereo not drawn)", "Potency": "inconclusive: 89.1 µM [inhibitor, single point]"}
{"smiles": "O=C(O)Cn1cc(/C=c2/sc3nc4ccccc4n3c2=O)c2ccccc21", "Potency": "inconclusive: 89.1 µM [inhibitor, partial curve, poor fit]"}
{"smiles": "O=C1NN(c2ccc(F)c(Cl)c2)C(=O)/C1=C\\c1cccc(OC(=O)c2cccs2)c1", "Potency": "inconclusive: 89.1 µM [inhibitor, single point]"}
